59 compounds from PubChem BioAssay AID463173 (ICCB-Longwood Screening Facility, Harvard Medical School, 2010) can be followed below.

About 4,300 (8.3%) of roughly 52,000 compounds were called active. No stated cut-off is given here; in the data, active means survival mostly below about 52% (no sharp cut-off); inactive means mostly above about 56%. Some of the results follow.

This experiment deals with DeltatarO mutant. Kind of experiment: growth inhibition of S. aureus wild type versus tarO mutant, primary screen, teichoic acid synthesis inhibitors, RN4220, OD600 (AID 463173). As to conditions: OD600, 18 h, stronger effect = lower value, screened at 18.75 µg/mL (by protocol).
For the compound `CCn1c(C)c(C)c2cc(C(=O)NCCc3cc(OC)c(OC)c(OC)c3)ccc21`, the survival was inactive: 67%. As to `Cc1cccc(C(=O)Nc2cccc(C(=O)OCc3cc(=O)n4c5c(sc4n3)CCCC5)c2)c1`, the survival is inactive: 144%. For `CCNC(=S)N1CCN(C)CC1`, the survival was inactive: 96%. For the compound `CCCc1nc2ccccc2n1CC(O)COc1ccccc1` (centres undefined), the survival is inactive: 69%.

Regarding `CCOC(=O)Cn1c(=O)oc2cc(S(=O)(=O)Nc3cc(OC)cc(OC)c3)ccc21`, the survival is inactive: 74%. In the case of `COc1ccccc1C(=O)NCc1ccc2c(c1)CCN2C(=O)c1cccc(C)c1` it was inactive: 77%.

For `COc1ccc(N2CCN(C(=O)C3CCN(S(=O)(=O)c4cnc[nH]4)CC3)CC2)cc1`, the survival is inactive: 134%. The result for `O=C(c1cccc(S(=O)(=O)N2CCOCC2)c1)N1CCCCC1` reads inactive: 97%; that for `CCc1ccccc1Nc1nn2c(=O)c3ccc(C(=O)NCc4cccs4)cc3nc2s1`, inactive: 70%. With `CCc1ccc2[nH]c(=O)c(CN(CCN(C)C)C(=O)Nc3ccccc3Cl)cc2c1`, the survival is inactive: 97%.

Take `CNC(=O)c1cc2c(n(-c3ccc(C)cc3)c1=O)CC(C)(C)CC2=O`: the survival was inactive: 93%. As to `Cc1cc(C)c(Nc2nn3c(=O)c4cc5c(cc4nc3s2)OCO5)c(C)c1`, the survival is inactive: 51%. Consider `O=C(Nc1ccc2nc(SCC(=O)N3CCOCC3)sc2c1)c1ccc(F)cc1`, for which the survival was inactive: 82%. With `COc1cccc(C(=O)Nc2ccc3oc(-c4ccc5ccccc5c4)nc3c2)c1`, the survival was inactive: 55%.

`COc1cc(OC)cc(-c2nc3nc(C)c(CCC(=O)Nc4ccc(Cl)cc4)c(C)n3n2)c1`: the survival is inactive: 65%.

For `CNC(=O)C1CC(=O)N(c2ccc(OC)cc2)C1` (centres undefined), the survival was inactive: 97%. `COc1ccc(-c2c3c(=O)n(C)c(=O)n(C)c3c3c(-c4ccccc4)nc4ccccc4n23)cc1`: the survival is inactive: 77%. Consider `O=C(Nc1ccccc1F)C(Cc1ccccc1)n1cccc1` (centres undefined), for which the survival was inactive: 77%.

For `COc1ccc(Cn2c(C(=O)O)c(CNCc3cccs3)c3ccc(C)cc32)cc1`, the survival is inactive: 89%. For `COc1ccccc1N1CCN(c2cc(N3CCCC3)nc(C)n2)CC1`, the survival is inactive: 98%. The result for `Cc1ccc2c(=O)cc(C(=O)Nc3nnc(CC(C)C)s3)oc2c1C` reads inactive: 61%; that for `CCc1ccc(NC(=O)Cn2c(=O)c(-c3ccccc3NC(C)=O)nc3ccccc32)cc1`, active: 44%. Consider `O=C(O)CSCCn1cccn1`, for which the survival was inactive: 93%. For `Oc1c(C(c2ccc(Cl)cc2Cl)N2CCOCC2)sc2nc(-c3ccco3)nn12` (centres undefined), the survival was inactive: 91%. Regarding `CCOC(=O)c1cc2c(ccn2-c2ccc(F)cc2)n1CC(=O)c1ccc2c(c1)OCCO2`, the survival is inactive: 100%. As to `CCOc1ccc(S(=O)(=O)N(CC(=O)NCCSCc2ccc(C)cc2)c2ccccc2)cc1`, the survival is inactive: 77%. Turning to `CCn1ccc2cc(S(=O)(=O)N3CCCN(C(=O)Nc4ccccc4C(F)(F)F)CC3)ccc21`, the survival is inactive: 135%. As to `Cc1ccsc1CNCCCO`, the survival was inactive: 92%. In the case of `Cc1ccc(C)n1-c1nnc(N2CCC(C(=O)Nc3ccccc3Br)CC2)s1` it was inactive: 91%; in that of `CCc1ccc(NC(=O)c2ccc3c(c2)N(Cc2ccc(C)cc2)CCS3)cc1`, inactive: 77%; in that of `CCn1c(SCC(=O)Nc2ccc(C)cc2Br)nnc1-c1nonc1NC(C)=O`, inactive: 44%. As for `O=C(CC1N=C2c3ccccc3N=C(SCC(=O)Nc3cccc(Cl)c3)N2C1=O)NCc1cccs1` (centres undefined), the survival was inactive: 119%.

Consider `Cc1cccc(Cn2c(=O)n(CCC(=O)NCc3ccc4c(c3)OCO4)c(=O)c3sccc32)c1`, for which the survival was inactive: 75%. Take `CC1CCN(S(=O)(=O)c2ccc(N3CCCCS3(=O)=O)cc2)CC1`: the survival was inactive: 71%.

Regarding `COc1ccc(CCNC(=O)Cn2cc(S(=O)(=O)Cc3ccccc3F)c3ccccc32)cc1OC`, the survival was inactive: 80%. In the case of `COc1ccccc1CNc1cc(-c2ccccc2)nc2nncn12`, the survival is inactive: 66%.

`CCOc1cccc(C(=O)Nc2c(C(=O)c3ccc(OC)cc3)oc3ccccc23)c1`: the survival was active: 28%. For `NC(=O)c1ccc(NC(=O)c2cc3ccccc3oc2=O)cc1`, the survival is inactive: 81%. With `CC(=O)c1ccc(C(=O)N(CCCN(C)C)c2nc3c(C)c(C)ccc3s2)cc1`, the survival was inactive: 108%. `COc1ccc(N2Cc3cccc(C(=O)Nc4ccc(C(C)C)cc4)c3C2=O)cc1`: the survival is inactive: 70%. Consider `CS(=O)(=O)NCC(c1ccco1)N1CCN(c2ccccc2)CC1` (centres undefined), for which the survival is inactive: 62%. `CCc1ccccc1N(C)C(=O)C1CCCN(c2ncnc3onc(-c4ccc(F)cc4)c23)C1` (centres undefined): the survival is inactive: 80%. In the case of `Cc1ccc(OCCn2c(CNc3cccc(C)c3)nc3ccccc32)cc1` it was active: -3%. The result for `CCCN1CCc2nc(N3CCN(CC)CC3)ncc2C1` reads inactive: 72%; that for `CC1(C)Cc2c(sc3ncn4nc(CSc5nc6ccccc6o5)nc4c23)C(C)(C)N1`, inactive: 83%. For `C=Cn1c(C(=O)O)cc(CC)c1-c1ccccc1`, the survival was inactive: 80%. With `Cc1ccc(NC(=O)c2sc(-n3nc(C)c(CCC(C)C)c3C)nc2C)cc1C`, the survival is inactive: 57%. Regarding `CCCNc1nc2ccccc2s1`, the survival is inactive: 66%. Turning to `O=C(CN(c1ccc(Cl)c(C(F)(F)F)c1)S(=O)(=O)c1ccccc1)N1CCc2ccccc2C1`, the survival was inactive: 42%. Turning to `O=C(c1ccc(Cl)cc1)N1CCC(c2nc(-c3ccc(F)cc3)no2)CC1`, the survival was inactive: 106%.

Take `CCn1nnnc1SCC(=O)c1ccc(OC)cc1OC`: the survival is inactive: 74%.

As for `COc1ccc(NC(=O)CSc2ncc3c(n2)-c2cc(Cl)ccc2N(Cc2ccccc2F)S3(=O)=O)cc1`, the survival is inactive: 70%. Take `CCCSc1ncc(Cl)c(C(=O)Nc2ccc(S(=O)(=O)Nc3ncccn3)cc2)n1`: the survival is inactive: 67%. In the case of `CC(=O)Nc1ccc(S(=O)(=O)c2cc(O)ccc2O)cc1`, the survival was inactive: 75%. On to `Cc1cc(C)c2c(=O)cc(C(=O)Nc3sc4c(c3C(=O)NCc3ccccc3)CCCC4)oc2c1`, for which the survival is inactive: 57%. For the compound `CC1CC(C(F)(F)F)n2ncc(C(=O)O)c2N1` (centres undefined), the survival is inactive: 101%. As for `CC(C)c1cc(C(F)(F)F)n2nc(C(=O)O)cc2n1`, the survival is inactive: 90%. As for `O=C(Nc1ccc2oc(-c3ccccc3F)nc2c1)c1ccccc1Cl`, the survival is active: 49%.

In the case of `Cc1cccc(CSc2ncc(CO)n2Cc2ccc(F)cc2)c1`, the survival was inactive: 130%.
